# From PubChem BioAssay AID1347417 (National Center for Advancing Translational Sciences (NCATS), 2020)
# Hit rate of the full screen: of about 120,000 compounds, about 5,300 (4.4%) were called active. Inconclusive results, whose numbers are uncertain, are shown with a selection of clear calls. Calls come from the whole dose curve; as a rule, active = well fitted inhibition curve with a large enough effect; inconclusive = small, poorly fitted or top-dose-only effect; inactive = no such curve, though single readings can be large or run the other way. Where the call is inconclusive, the potency comes from a doubtful curve fit.
# Assay: qHTS Primary assay for Inhibitors of Plasmodium falciparum Dd2 growth in vitro; note: nearly all actives have a fitted effect of over 65% in size;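 for activity, negative = inhibition: plate controls were DMSO vehicle for no effect and reference drug for full effect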
# Settings: P. falciparum Dd2 growth, SYBR Green, 72 h; activity, negative = inhibition: at 28.9 µM (top of the series) unless noted; series mostly up to 28.9 µM
# In short: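 Readout: SYBR Green fluorescence, 485 nm excitation, 535 nm emission, after ~16 h lysis at 37C. Before that, Dd2-infected red cells (2.5% hematocrit) grew 72 h with compound, 29 uM top final concentration.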
# Potency is the fitted concentration of half-maximal effect; tags give direction and shape of the fitted curve.
SMILES,Potency,"activity, negative = inhibition"
CN1Cc2cccn2CC1CNC(=O)c1cccn1C (stereo not drawn),inactive,–
CN1CCCC2(CC1)CCN(C(=O)c1ccc(C#CC(C)(C)O)cc1)CC2,"inconclusive: 7.08 µM [inhibitor, partial curve]",–
Cc1nc2c(c(-c3ccc(O)cc3)n1)CN(Cc1ccc(C(F)(F)F)cc1)CCC2,active: 0.891 µM,–
CCC(=O)N1CCN(c2nc3c(s2)CC(C(=O)Nc2ccc(F)cc2F)CC3)CC1 (stereo not drawn),active: 5.01 µM,–
COc1cccc(CN2CCC3(CC2)c2[nH]c4ccccc4c2CCN3C)c1,"inconclusive: 3.55 µM [inhibitor, single point]",–
Cc1[nH]c2ccc(C(=O)N3CC[C@@](C)(O)[C@@H](O)C3)cc2c1C,inactive,–
COc1cccc(CNC(=O)c2nc(Cn3nc(C)c(Br)c3C)no2)c1,inactive,–
CN(CCc1cn[nH]c1)c1ccc(-c2nc(-c3ccccc3F)no2)cn1,inactive,–
O=C(Nc1ccc(F)cc1F)N1CCC2(CC1)SCC(=O)N2c1ccc(Cl)cc1,inactive,–
CCOc1ccc(NC(=O)c2cc(S(=O)(=O)N3CCN(c4ccccc4F)CC3)ccc2F)cc1,"inconclusive: 11.2 µM [inhibitor, single point]",–
COc1cccc(OCC(=O)c2ccc3c(c2)N(CCCC(=O)NCC2CCCO2)C(=O)CO3)c1 (stereo not drawn),inactive,–
Cc1ccsc1-c1[nH]nc2ncc(-c3ccc(F)cc3)nc12,"inconclusive: 31.6 µM [inhibitor, single point]",–
N#CC1CCN(C(=O)c2nc(-c3ccc(Cl)cc3Cl)c3ccccn23)CC1,"inconclusive: 5.01 µM [inhibitor, partial curve]",–
Cc1nc2c(OCC(=O)c3ccccc3)cccn2c(=O)c1-c1cc(C)n(-c2ccccc2)n1,"inconclusive: 1.12 µM [inhibitor, single point]",–
COc1cccc(N2CCN(c3nc(C(=O)NCc4cccc(C)c4)cs3)CC2)c1,"inconclusive: 1.41 µM [inhibitor, full curve, poor fit]",–
Cc1ccc(NC(=O)N[C@@H]2C=C(C(=O)NCC(N)=O)C[C@@H](O)[C@@H]2O)cc1,inactive,–
COCC(=O)Nc1nc2c(s1)C[C@@H]1[C@](C)(CO)[C@H](O)CC[C@@]1(C)[C@@H]2CC(=O)NCc1ccccc1,"inconclusive: 17.8 µM [inhibitor, single point]",–
CC(=O)N1CC(CO)C2(CCN(C(=O)c3ccc(Br)cc3)CC2)C1 (stereo not drawn),inactive,–
O=C(O)C1=NOC2CN(Cc3ccc(Cl)cc3)CC12 (stereo not drawn),inactive,–
O=C(CCc1nc2ccccc2s1)NCC1Cn2cccc2CN1Cc1ccccc1 (stereo not drawn),"inconclusive: 10 µM [inhibitor, single point]",–
CCn1ncc(N2CCC(NC(=O)c3cccc(N(C)C)c3)CC2)cc1=O,"inconclusive: 3.55 µM [inhibitor, partial curve]",–
O=C(c1cccnc1N1CC2CC(C1)[C@H]1CCCC(=O)N1C2)N1CC=C(c2ccccc2)CC1 (stereo partly drawn),"inconclusive: 5.01 µM [inhibitor, partial curve]",–
CCN(CC)CCn1cnc(-c2ccccc2)c1-c1cnc(C)s1,"inconclusive: 11.2 µM [inhibitor, single point]",–

SMILES,Potency,"activity, negative = inhibition"
COc1ccc(NC(=O)c2nnn3c2COC(c2ccc(F)cc2)C3)cc1Cl (stereo not drawn),"inconclusive: 2 µM [inhibitor, partial curve, poor fit]",–
Cn1cc(CN2C[C@@H](F)[C@@H](OCc3nc4ccccc4n3C)C2)cn1,inactive,–
CCSc1nnc2c(n1)OC(c1ccc(OC)c(OC)c1)N(C(C)=O)c1ccccc1-2 (stereo not drawn),inactive,–
CN(C)c1ccc(CNC(=O)C2CCN(Cc3cc4ccccc4n3Cc3ccccc3)CC2)cc1,active: 11.2 µM,–
O=C(NCCCn1cccn1)c1ccccc1OC1CCN(Cc2ccccn2)CC1,"inconclusive: 10 µM [inhibitor, partial curve, poor fit]",–
COC(=O)c1ccc([C@H]2Nc3ccc(S(=O)(=O)Nc4ccc(F)cc4)cc3[C@H]3C=CC[C@H]32)cc1,"inconclusive: 17.8 µM [inhibitor, single point]",–
Cc1ccc(S(=O)(=O)N2CCCc3cc(NS(=O)(=O)c4ccccc4)ccc32)cc1,inactive,–
O=C(Cc1ccc(Cl)cc1)N1Cc2ccccc2CC2(CCCN2CC2CCNC2)C1 (stereo not drawn),"inconclusive: 11.2 µM [inhibitor, partial curve, poor fit]",–
COc1ccccc1N1CCN(c2c(CN3CCCC3)c(=O)oc3ccccc23)CC1,"inconclusive: 11.2 µM [inhibitor, partial curve, poor fit]",–
O=C(Nc1ccc(Cl)c(Cl)c1)N(Cc1c[nH]c2ccccc12)C1CCCCC1,"inconclusive: 8.91 µM [inhibitor, partial curve, poor fit]",–
O=C(c1ccccc1)N1CCC(N2Cc3ccccc3C2=O)CC1,–,inconclusive: -31% [inhibitor]
CCOc1ccc(CN2C(=O)c3ccccc3Sc3ccc(C(=O)NCCCN4CCOCC4)cc32)cc1,inactive,–
CC1=C[C@@H](CNC(=O)COc2ccccc2)[C@H](C(C)C)C[C@H]1CC(=O)N1CCN(C)CC1,"inconclusive: 8.91 µM [inhibitor, single point]",–
CN(Cc1ccccc1)Cc1cc(C[C@@H]2C[C@H](NC(=O)C3CCC3)C2(C)C)no1,"inconclusive: 22.4 µM [inhibitor, single point]",–
CNC(=O)c1noc2c1CN(CC1(O)CNCCOC1)CC2 (stereo not drawn),inactive,–
CCOc1ccc(C(=O)c2cn(Cc3cccc(OC)c3)c3cc4c(cc3c2=O)OCO4)cc1,inactive,–
Cc1ccc(S(=O)(=O)N2CCCC2C(=O)Nc2ccc(Br)cc2)cc1 (stereo not drawn),inactive,–
COc1ccc(CN2CCN(c3ccnc(C)n3)CC2CCO)c(C)c1C (stereo not drawn),"inconclusive: 8.91 µM [inhibitor, partial curve]",–
O=C(C1CCCN(S(=O)(=O)c2cccc3nonc23)C1)N1CCN(c2cccc(C(F)(F)F)c2)CC1 (stereo not drawn),"inconclusive: 12.6 µM [inhibitor, single point]",–
COc1ccc(C(=O)N2CCOC[C@H](Oc3cnccn3)C2)cc1,inactive,–
O=C(c1ccccn1)N1CC(CO)C2(CCNCC2)C1 (stereo not drawn),inactive,–
Cc1ccc(CNC(=O)CCc2ccnc(N3CCCC3)c2)cc1,"inconclusive: 12.6 µM [inhibitor, single point]",–
COc1ccc(-c2noc([C@@H]3C[C@H](NCc4ccc(N(C)C)cc4)CN3C)n2)cc1,active: 12.6 µM,–

SMILES,Potency,"activity, negative = inhibition"
CCOC(=O)c1c(C)oc2nc(C)nc(N(C)Cc3ccccc3)c12,active: 12.6 µM,–
COc1ccccc1-c1noc(CSc2nnc(-c3ccccc3)n2-c2ccc(C)c(C)c2)n1,"inconclusive: 11.2 µM [inhibitor, partial curve]",–
CCc1cccc(NC(=O)C2Cn3cccc3C(=O)N2C)c1 (stereo not drawn),"inconclusive: 20 µM [inhibitor, single point]",–
COc1ccccc1C(=O)Nc1ccnn1C1CCN(c2nccc(N)n2)CC1,"inconclusive: 10 µM [inhibitor, partial curve, poor fit]",–
Cc1ccc2[nH]c(=O)c3cc(C(=O)NCc4cccc(Cl)c4)sc3c2c1,"inconclusive: 17.8 µM [inhibitor, single point]",–
CC(C)n1ccnc1C1CCCN(S(=O)(=O)c2ccccc2Cl)C1 (stereo not drawn),inactive,–
CCCCCNc1ncnc2c1CN(c1ccccc1F)C(=O)CN2C,inactive,–
CCC(Oc1ccccc1)C(=O)N1CCN(Cc2cc(=O)n3nc(-c4cccc(C)c4)sc3n2)CC1 (stereo not drawn),"inconclusive: 17.8 µM [inhibitor, single point]",–
Cc1cc(N2CCN(C)CC2)nc2ccc(NC(=O)Nc3ccc(F)cc3F)cc12,"inconclusive: 17.8 µM [inhibitor, single point]",–
CNS(=O)(=O)c1ccc(CN2CCCC3(C2)CN(C)C(=O)O3)cc1 (stereo not drawn),inactive,–
COC(=O)[C@@H]1Cc2c([nH]c3ccccc23)[C@H]2C[C@H](NCCO)C[C@@H](c3ccccc3)N21,inactive,–
CCOc1ccc(C(=O)NCCn2cccc2-c2nc(-c3ccccc3)no2)cc1OCC,active: 10 µM,–
Cc1ccc(C(=O)N2CCc3sc(C(=O)NCc4ccc(F)cc4F)cc3C2)cc1,inactive,–
COc1ccc(Cn2c(C3CCN(C(=O)COc4cccc(C)c4)CC3)n[nH]c2=O)cc1,"inconclusive: 12.6 µM [inhibitor, single point]",–
COc1ccc(Nc2ccc3cc(S(=O)(=O)N4CCCC4)ccc3n2)cc1OC,"inconclusive: 17.8 µM [inhibitor, single point]",–
CCOC(=O)c1c(C)oc2nc(C)nc(NCC3CCN(Cc4ccc(F)cc4)CC3)c12,"inconclusive: 0.501 µM [inhibitor, full curve, poor fit]",–
COc1ccc([C@H]2C[C@@H](O)[C@@H](O)[C@@H]2NCc2cccc(OC)c2)cc1,"inconclusive: 3.98 µM [inhibitor, single point]",–
Cc1cc(C)cc(C(=O)N2CCC(c3n[nH]c(=O)n3-c3ccccc3)CC2)c1,"inconclusive: 8.91 µM [inhibitor, partial curve]",–
CCC1=C(C(=O)OC)C(c2cccc(OC)c2)N2C(CC(=O)N3CCOCC3)=CSC2=N1 (stereo not drawn),"inconclusive: 2 µM [inhibitor, partial curve, poor fit]",–
FC(F)(F)c1ccc(Oc2ccc(CN3CCCC3)cc2Cl)nc1,"inconclusive: 11.2 µM [inhibitor, single point]",–
CNC(c1ccccc1)c1ccccc1,"inconclusive: 4.47 µM [inhibitor, partial curve]",–
O=C1NCc2ccccc2CC12CCCCN2Cc1ccccc1 (stereo not drawn),"inconclusive: 6.31 µM [inhibitor, partial curve, poor fit]",–
